Laboratory results published in PubChem BioAssay AID624173 (National Center for Advancing Translational Sciences (NCATS), 2012).
About 490 (0.12%) of roughly 410,000 compounds were called active. Inconclusive means that the source gave no clear call. Such entries were picked first, then a sample of the others. Calls follow the shape of the dose curve; as a rule, active = well fitted inhibition curve with a large enough effect; inconclusive = small, poorly fitted or top-dose-only effect; inactive = flat fitted curve, though single readings scatter. Where the call is inconclusive, the potency comes from a doubtful curve fit.
Also: nearly all actives have a fitted effect of over 50% in size.
Potency is read from the fitted curve at half-maximal effect; tags tell the direction and shape of the fitted curve.

What follows are compounds tested against pyruvate kinase (Trypanosoma brucei) (UniProt Q57TT1) (assay: qHTS of Trypanosoma Brucei Inhibitors). Conditions: TbPYK enzyme, Kinase-Glo Plus ATP luminescence, 45 min; series mostly up to 76.8 µM.
How it was run: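 In this concentration-response screen, enzyme-free wells defined baseline while DMSO plates tracked drift. Each reaction combined TbPYK, substrate, compound and 130 uM ADP for 45 min at room temperature. Kinase-Glo Plus luminescence gave the signal.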
For `COc1cc(/C=N/NC(N)=S)ccc1OCC(=O)N1CCOCC1`, the Potency was “inactive”.
In the case of `Oc1cc2c(cc1O)CN(C(=S)NCCc1ccc(Cl)cc1)CCC2`, the Potency was inconclusive: 35.5 µM [inhibitor, partial curve, poor fit].
For `Nc1c(C(=O)N2CCCCC2)sc(=S)n1-c1ccccc1`, the Potency was inconclusive: 17.8 µM [inhibitor, partial curve, poor fit].
In the case of `CCC1(c2ccccc2)NC(=S)N(c2ccc(C)cc2)N1` (stereo unspecified), the Potency was inconclusive: 7.08 µM [inhibitor, partial curve].
In the case of `COc1ccc(-c2nc(CS(=O)CC(=O)NCc3ccc(F)cc3)c(C)o2)cc1OC` (stereo unspecified), the Potency was “inactive”.
`C=CCn1c(CCc2cc(C(C)(C)C)c(O)c(C(C)(C)C)c2)n[nH]c1=S` was tested, and the Potency was inconclusive: 11.2 µM [inhibitor, partial curve, poor fit].
In the case of `CCOC(=O)C1CCN(C(=O)Nc2ccc3nc(-c4ccco4)c(-c4ccco4)nc3c2)CC1`, the Potency was inconclusive: 15.8 µM [inhibitor, partial curve, poor fit].
With `CCCS(=O)(=O)c1ncc(Cl)c(C(=O)N2CCN(c3ccc(OC)cc3)CC2)n1` the Potency was “inactive”.
In the case of `O=C(CNc1ccc2ccccc2c1)N/N=C/c1ccncc1`, the Potency was “inactive”.
For `O=C(O)CC(C(=O)O)N1C(=O)/C(=C/C=C/c2ccco2)SC1=S` (stereo unspecified), the Potency was inconclusive: 15.8 µM [inhibitor, partial curve].
With `Cc1cccc(/C(N)=N/OC(=O)c2ccc(Cl)cc2Cl)c1` the Potency was inconclusive: 28.2 µM [inhibitor, partial curve, poor fit].
In the case of `COc1cccc(/C=N/Nc2ncccc2[N+](=O)[O-])c1OC`, the Potency was inconclusive: 28.2 µM [inhibitor, partial curve, poor fit].
For `CCN(CC)c1ccc(NC(=O)CCCOc2cccc(C)c2)cc1`, the Potency was inconclusive: 12.6 µM [inhibitor, partial curve].
For `O=C(Nc1cc(NC(=O)c2ccccc2Cl)ccc1Cl)c1ccccc1`, the Potency was “inactive”.
`O=C(O)CCNc1ccc(NCCC(=O)O)c2c1C(=O)c1ccccc1C2=O` was tested, and the Potency was inconclusive: 25.1 µM [inhibitor, partial curve, poor fit].
`COc1ccc(OC)c(N)c1` was tested, and the Potency was inconclusive: 50.1 µM [inhibitor, partial curve, poor fit].
For `Oc1ccc(/C=N/N2CCCCC2)c(O)c1O`, the Potency was inconclusive: 10 µM [inhibitor, partial curve].
With `CCCCCCN1C=C/C(=C\C=C(C#N)C#N)c2ccccc21` the Potency was inconclusive: 15.8 µM [inhibitor, partial curve].
`Cc1noc(-c2ccc(Cl)cc2)c1C(=O)O/N=C(\N)c1ccc(C(C)(C)C)cc1` was tested, and the Potency was “inactive”.
With `Cc1cn(CCC(=O)Nc2ccc(N3CCOCC3)cc2)c2ccccc12` the Potency was “inactive”.
With `Cc1cc(=O)c2cc(C(=O)Nc3ccccc3)ccc2[nH]1` the Potency was “inactive”.
`Cc1ccc(C(C)(C)C)cc1S(=O)(=O)N1CCC(C(=O)N2CCN(c3ccc(O)cc3)CC2)CC1` was tested, and the Potency was inconclusive: 22.4 µM [inhibitor, partial curve].
In the case of `COc1ccc(-c2n[nH]c(=S)n2C2CCCCC2)cc1`, the Potency was inconclusive: 6.31 µM [inhibitor, partial curve, poor fit].
With `CC(c1ccc(F)cc1)n1c(Cn2ncc3ccccc3c2=O)n[nH]c1=S` (stereo unspecified) the Potency was active: 12.6 µM.
With `Cn1c(CNC(=O)OC(C)(C)C)n[nH]c1=S` the Potency was inconclusive: 31.6 µM [inhibitor, partial curve, poor fit].
For `Cc1ccc(N(CCCCN2C(=O)c3ccccc3C2=O)C(=O)c2ccc(Cl)s2)cc1`, the Potency was “inactive”.
With `Cc1ccc(-n2sc3cc(F)ccc3c2=O)c(C)c1` the Potency was active: 10 µM.
`Cc1cccc(-n2c(O)c(C=Nc3ccccc3O)c3ccccc3c2=O)n1` was tested, and the Potency was “inactive”.
In the case of `Nc1scc2c(C(=O)O)nn(-c3ccccc3)c(=O)c12`, the Potency was inconclusive: 35.5 µM [inhibitor, single point].
`CC1=NN(c2nc(-c3ccc(C)cc3)cs2)C(=O)C1N=Nc1cccc(O)c1` (stereo unspecified) was tested, and the Potency was inconclusive: 50.1 µM [inhibitor, single point].
`O=C1C=CC(=O)N1CCCCCCN1C(=O)C=CC1=O` was tested, and the Potency was active: 10 µM.
`CCn1cc(C(=O)O)c(=O)c2cc(F)c(N3CCN(C(=S)Nc4ccccc4OC)CC3)cc21` was tested, and the Potency was “inactive”.
With `CCOc1ccc(NC(=O)CN2C(=O)C(c3ccccc3)=NC23CCC(C)CC3)cc1` (stereo unspecified) the Potency was “inactive”.
With `CS(=O)(=O)N(CC(=O)NCc1ccc(Cl)cc1)C1CCCCC1` the Potency was inconclusive: 50.1 µM [inhibitor, single point].
With `Cc1cccc(-n2c(-c3ccc(Br)o3)n[nH]c2=S)c1` the Potency was inconclusive: 10 µM [inhibitor, partial curve, poor fit].
`Cc1ccn(-c2cc(O)c(-n3ccc(C)n3)cc2O)n1` was tested, and the Potency was “inactive”.
For `Cc1ccccc1-c1cc(C(=O)Nc2sc(C)c(C)c2C(N)=O)c2ccccc2n1`, the Potency was inconclusive: 20 µM [inhibitor, partial curve].
`CC1(C)CC(=O)C(C=Nc2cccnc2/N=C/C2=C(O)CC(C)(C)CC2=O)=C(O)C1` was tested, and the Potency was “inactive”.
For `Nc1n[nH]c(=S)n1/N=C1/C(=O)Nc2ccccc21`, the Potency was inconclusive: 11.2 µM [inhibitor, partial curve, poor fit].
With `CCOc1ccccc1CNC(=O)Cn1c(-c2ccccc2)cc(C(C)=O)c1C` the Potency was “inactive”.
In the case of `C=Cc1cc(OC)c2c(c1)c(=O)oc1c2cc(OC)c2c(O)ccc(C3OC(C)C(O)C(C)(O)C3O)c21` (stereo unspecified), the Potency was “inactive”.
`CCCn1c(CCc2ccccc2)n[nH]c1=S` was tested, and the Potency was inconclusive: 11.2 µM [inhibitor, partial curve].
With `O=C1CCCC2=C1C(c1cccs1)n1nc(SCc3ccccc3)nc1N2` (stereo unspecified) the Potency was inconclusive: 50.1 µM [inhibitor, single point].
For `C/C(=N/OC(=O)c1ccc(C)cc1)c1cccs1`, the Potency was inconclusive: 17.8 µM [inhibitor, partial curve, poor fit].
`COc1ccc(CCNC(=O)c2sc3nc4n(c(=O)c3c2C)CCCC4)cc1OC` was tested, and the Potency was “inactive”.
For `O=C(O)c1ccc(N2Cc3ccccc3C2)cc1O`, the Potency was inconclusive: 22.4 µM [inhibitor, partial curve, poor fit].
